The labels stand for the following.
B1: LINE1-full (parent)
chain: UACGUAGGUGGUUUUCCCCUGAUAGUGCUAAGGGGGCCUGGAAGUUUGGACUGGGCAGAGCUCAACACAGCGUGGCAAAGUGGCUGUGGCUAGACUGCCUCUCUGGAUUCCUCGUCACUCAGCAGGGCAUCUCUGAGAGAAAUGCC

Here are results for 167 variants from the RNAGym collection of RNA variant scans (doi:10.7554/elife.90254).

The source gives no read counts; variants with many changes may rest on few reads.

Variants of B1 are the subject of this series. The experiment in a line: self-cleavage, relative activity (ratio to wild type); higher = more cleavage; in vitro, sequencing; the parent is a self-cleaving ribozyme.
For U47C A77U U109C, the self-cleavage is 0.37. Consider A94G U102C C128U, for which the self-cleavage came out at 0. Consider U14C U52A A107U A124U, for which the self-cleavage was 1.33. As for A57U U62A A67G U96A, the self-cleavage amounted to 0.

In the case of U29G A129G A141U, the self-cleavage amounted to 1.09. U47C U62C A92G U96A: the self-cleavage worked out at 0. With U14C U45G U47C U73A A136U the figure was 0.69; with U62C U96C U104A, 0.05. For G48A A78G A142G, the self-cleavage turned out to be 0.74. As to A67G A69G U81A U104A, the self-cleavage was determined as 0.04. C19U U115C A117C: the self-cleavage was determined as 2.71.

As to G8U U96C U112C, the self-cleavage turned out to be 0.27. Take A22G G35A G75C: the self-cleavage worked out at 0.47. Turning to U52A U102C A117U, the self-cleavage was found to be 1.31. For the variant A22G G40A U46C A140U, the self-cleavage was 1.56. As for U14C A79G A141G, the self-cleavage worked out at 0.9. U9A A59G U104C C118U U130C: the self-cleavage was found to be 0.

As for U12C U46C A57G A64C, the self-cleavage was 0.57.

As for U23C U62C A77U, the self-cleavage is 0.11.

With A64G A65G A121U, the self-cleavage was 0.53. Consider U115C A124G U130C, for which the self-cleavage was found to be 2.76. On to C38A G74A A124U A140G, for which the self-cleavage is 0.86. The result for U14C U23C U46C U96A reads 0.15; that for U81C U104C A141G A142G, 1.97. Take A64G U108C G114A G125U: the self-cleavage was determined as 0.27.

U13C A50G U73A: the self-cleavage was determined as 0.84.

Regarding U81A A92C U134C, the self-cleavage came out at 0.37. As for U13C U100C U119C, the self-cleavage came out at 2.17. Take U1A U15C U26C G36A C76U C113U: the self-cleavage was 2.08.

Take U12C U14A A59G U104A: the self-cleavage worked out at 0.04. The result for U62C A69G A129G reads 0.17; that for U12G U15A G139A, 0.6.

As for A2G U5A U109C A140U, the self-cleavage turned out to be 0.92. With U15A C116U A129G the figure was 1.15; with U20G A24G A117G G126A, 1.39. With A22U A67G U112A C118U, the self-cleavage worked out at 0.39. Consider U15C A42G U109A, for which the self-cleavage worked out at 1.61. U20C U52C U62C: the self-cleavage came to 0.09. The result for A129C A140G A141G reads 1.27. Turning to U15A U52A U134C, the self-cleavage amounted to 0.73. For U52C G74A U132C, the self-cleavage was determined as 1.47. Regarding C66A C76U U81A, the self-cleavage was found to be 0.02. As for A22G A64C U104A U112A, the self-cleavage worked out at 0.55. With A22G U62C A107G, the self-cleavage was found to be 0.

In the case of U52A U112G A138G, the self-cleavage came to 2.3. On to U5A G32C A140G, for which the self-cleavage worked out at 1. On to A22U U45C U96C, for which the self-cleavage came to 0.1. Consider U45C G82U U119C, for which the self-cleavage stood at 2.19. In the case of U23C A30C U45C A142G, the self-cleavage turned out to be 1.53. As to G49U G83A A140G, the self-cleavage was determined as 0.65. The result for A6G G41A U102C reads 0.83; that for U1A A64C A138G, 0.86; that for U12C U45A C113U, 1.38. As to A42G A107G U130C, the self-cleavage was 0.42. Consider C17U A24G G32A G35A U96C U134C A138U, for which the self-cleavage amounted to 0.05. As for U13C A69G U119C, the self-cleavage was found to be 0.32. Take U23C U26A C120U: the self-cleavage was determined as 1.65. On to U26G A77U A79G U109C, for which the self-cleavage was determined as 0.87. On to G7C A129C U132C, for which the self-cleavage stood at 1.38. As to G7A U96A U109A C113A, the self-cleavage is 0.03.

On to A59G A64G A69G G126A, for which the self-cleavage is 0.22.

For A42G A78G A142G, the self-cleavage was 1.19. A30G U47C U115A U130C: the self-cleavage is 1.62. As for A94G C113A A121U, the self-cleavage amounted to 0.23. A69U A78G A117U: the self-cleavage turned out to be 0.07. Turning to U12A U73C A141G, the self-cleavage worked out at 1.64.

Regarding U13A G49U U52C G54A A78G U102C, the self-cleavage is 0.17.

As for A6C A57G A77G, the self-cleavage stood at 1.02.

With U26A C123U U143C, the self-cleavage came to 1.24.

On to U23A G114A A121U, for which the self-cleavage came to 1.56. The result for A64U U112C A140G reads 0.03; that for U12C A77U U87A, 0.12. For the variant U14A A67G A140U, the self-cleavage stood at 0.39.

A2C A67G A129G: the self-cleavage turned out to be 0. Turning to A94G U100C A142G, the self-cleavage came to 0. With A64G A124U A141U, the self-cleavage was 0.14.

As to U5C U14C U23C U45G, the self-cleavage stood at 0.99. Take U5C U143C C146U: the self-cleavage is 1.15.

Regarding A31U U85C U104C, the self-cleavage turned out to be 0.3.

G11A A79G A136U A140G: the self-cleavage came out at 1.1. The result for C38U U108C U119C reads 0.98. For U15C U47C G53U A65G U100A, the self-cleavage stood at 0.08. For U9C A78U U112A A129G, the self-cleavage came to 2.14. Regarding G36C A42G U100C C128U, the self-cleavage was 1.85. Take U62C A79G U96C A140G: the self-cleavage is 0.

As for U15A U130A A141G, the self-cleavage came to 1.29. With G72A U134C A138G, the self-cleavage turned out to be 1.75. The result for U29C U62C A78G A142G reads 0.2.

Turning to U85A U104C U108C, the self-cleavage stood at 0.44.

With U100C G135A A141G, the self-cleavage worked out at 2. U1A U23C A31U A65G G82A U85A: the self-cleavage is 0.05. In the case of U9C A69G U109C A124G, the self-cleavage was 0. The result for U15C U20C U45A U46A U102A reads 1.64.

For U96C U100C A117U, the self-cleavage stood at 0.36. For A2G U13C G80A, the self-cleavage worked out at 0.97. With U12G A57U A140G A141G, the self-cleavage came to 0.31.

Regarding U13C C19U A57U U62C A64G G89A A92G G105U, the self-cleavage was 0. As to A42G G55A U85C A140G, the self-cleavage came to 0.09. For the variant A78U U115G A141U, the self-cleavage turned out to be 2.61. On to G34U A59G U87C, for which the self-cleavage came to 0.1.

Take U46C A50G A124G G127U: the self-cleavage was 0. U9C U13C A64G: the self-cleavage is 0.88. For U20C U62C G93A A141G, the self-cleavage came to 0. U14A U73C A77G C95U U102C U143C: the self-cleavage is 0.

Turning to U100C U130C A136G, the self-cleavage was found to be 1.79. Take U12G U26C A65G U87A A129G: the self-cleavage stood at 0. Turning to U39C G72A A142G, the self-cleavage was 1.23. A22G A69G U87A U119C: the self-cleavage was 0.04. For the variant U1C C37G U52A, the self-cleavage is 0.6. Regarding C95U U102A G106U, the self-cleavage is 0.12. Turning to U13A U15G A117G, the self-cleavage amounted to 1.1.

Take U13A U14C C111A: the self-cleavage was determined as 0.69.

Regarding U20C C98U U100C U143C, the self-cleavage was found to be 1.36. A42U C68A U104A: the self-cleavage was determined as 0.03. For U14C A31G A94U A124C, the self-cleavage came to 0.48. With G32A A42G U108A the figure was 0.88; with U12C U73C A129U, 0.

As to A77U U100C A129U, the self-cleavage worked out at 1.66. On to U20C A59G C101U U112C U115C, for which the self-cleavage came out at 0.18. The result for A22C A43G U45A A64U A124G reads 0.91. With G32A U119C U132C the figure was 1.87. Take U13C A31U A77G U104A A129U C145U: the self-cleavage stood at 1.73. For A24G A30G C61G A124G, the self-cleavage was 0.29.

As to A6G U96C U134C, the self-cleavage stood at 0.38. As for U12A A57U G126A A129G, the self-cleavage was 0.13. A69G A78G U87C: the self-cleavage is 0. U9C U87C A138G: the self-cleavage came out at 0.25. Consider U15A A31G A92U U143C, for which the self-cleavage is 0. The result for A43G G75U A129G reads 0.86; that for U5G U20C A117U U132C, 0. U12C G32U U47C U96C: the self-cleavage turned out to be 0.18. As for U14C A22G U100A, the self-cleavage turned out to be 0.72. With U52G A69G U96A, the self-cleavage is 0.06. On to G74A A78G U102C U104A, for which the self-cleavage was 0.87.

In the case of U9A A69U U81C U85C A141G, the self-cleavage is 0.08.

Take U9C A65U U81A U109C U132C: the self-cleavage was 0.1. For the variant A2G U20C A136G, the self-cleavage came to 0.75. U47A A50C U96A: the self-cleavage is 0.07. Take G34U U52C A107G U119C: the self-cleavage turned out to be 1.84. With U23C G82A U91A U119C the figure was 1.36; with A67U A77U U112C, 0.03; with U26C U47C A92U U102C, 0.54. Take G4A C61U A136G: the self-cleavage worked out at 0.05. Regarding A22U U85A A142G, the self-cleavage amounted to 0.07. Consider A22C U100A U115C, for which the self-cleavage was determined as 1.17. Regarding G11A U39C A69G U85C G122U, the self-cleavage came to 2.3. As to U14C U87G A121U, the self-cleavage was determined as 0.21. For A69G U87A U112G, the self-cleavage is 0.36. Regarding A30G U62C A142G, the self-cleavage was 0.32. With A42G U47A U132A, the self-cleavage came out at 1.68.

As to U39C G74A A78G, the self-cleavage is 0.22. Take A6G C19U G49U U52C: the self-cleavage came out at 0.13.

For U62A A107G U119C, the self-cleavage was found to be 0. On to G7A U15A U132C A141G, for which the self-cleavage turned out to be 0.57. U13A A59G U62C U112C A142G: the self-cleavage is 0.

Turning to A77G A121U A142G, the self-cleavage is 1.84. For the variant U9C U14C G74U A77U, the self-cleavage was 1.48. As for A2G A24G A43G C101U U115A, the self-cleavage came to 0.77.

Consider U14C U15C A94G, for which the self-cleavage is 1.06. As for C63U A77G A121G, the self-cleavage stood at 0.61. The result for U39A U47A U108A U132C A140G reads 1.12; that for U13C A59G A65G U109C, 0. Take U52C U112A U132C: the self-cleavage stood at 1.81.

Take U1A U20C A22G C61U A136U: the self-cleavage came out at 0.2.

In the case of A42G G75C U100A A121U U130C A141G, the self-cleavage stood at 0.24. With C103A A107G U108A U119C A138G, the self-cleavage amounted to 1.45.

As for A43G A69U A117C, the self-cleavage was 0.03.
